# Measured values from PubChem BioAssay AID463173 (ICCB-Longwood Screening Facility, Harvard Medical School, 2010).
# Among all 52,000 compounds or so, about 4,300 (8.3%) were called active. Cut-off read from the data, not from the text of the source: active = survival mostly below about 52% (no sharp cut-off); inactive = mostly above about 56%. Some of the results follow.
# Test system: DeltatarO mutant
# Test: S. aureus survival, RN4220 and DeltatarO strains – OD600, teichoic acid synthesis inhibitors, primary screen (AID 463173)
# Conditions: S. aureus RN4220 wild type/DeltatarO growth, OD600, 18 h, active compounds read low, screened at 18.75 µg/mL (by protocol)
row,Compound,survival
1,N#CC(C#N)C(CC(=O)c1cccs1)c1ccccc1 (stereo not drawn),inactive: 99%
2,CCOc1ccc(N(CC)S(=O)(=O)N2CCCC(C(=O)Nc3ccc(C(C)=O)cc3)C2)cc1 (stereo not drawn),inactive: 82%
3,CC(C(=O)c1ccccc1)n1cnc2ccccc2c1=O (stereo not drawn),inactive: 104%
4,CCCc1ncc(C(O)c2ccccc2OC)n1C (stereo not drawn),inactive: 85%
5,CCCS(=O)(=O)c1nc(S(=O)(=O)c2ccc(C)cc2)c(N(C)Cc2ccccc2)s1,inactive: 86%
6,Cc1ccccc1C(=O)Nc1nnc2n1CCS2,inactive: 75%
7,CC(C)NC(=O)N1CCN(S(=O)(=O)c2ccc3c(ccn3C)c2)CC1,inactive: 81%
8,Cc1ccc(C)c(NC(=O)CN(C)S(=O)(=O)c2ccc3c(c2)CCC(=O)N3)c1,inactive: 85%
9,CCOC(=O)c1cc(-c2ccc(OC)cc2)n(CCC(=O)NCc2ccc(OC)cc2)c1C,inactive: 92%
10,C=CCN1CCN(C(c2ccccc2Cl)c2nnnn2C2CCCCC2)CC1 (stereo not drawn),inactive: 97%
11,COc1ccc2nc(Cl)c(CN(C(=O)c3ccco3)C3CCCC3)cc2c1,inactive: 114%
12,COc1ccccc1CNC(=O)CCC1N=C2c3ccccc3N=C(SCC(=O)Nc3ccc(N(C)C)cc3)N2C1=O (stereo not drawn),inactive: 99%
13,Cc1cccc(OCC(=O)Nc2cc(-c3ccccc3F)nn2-c2ccccc2)c1,inactive: 87%
14,Cc1cc(C(=O)N2CCN(c3cccc(C)c3C)CC2)c2c(C)nn(-c3ccccc3)c2n1,inactive: 128%
15,CCOC(=O)c1c(C)[nH]c(C)c1S(=O)(=O)N1CCCC(C(=O)NCc2cccc(OC)c2)C1 (stereo not drawn),inactive: 78%
16,CCCC(=O)NC(C)c1nc2ccccc2n1Cc1ccccc1 (stereo not drawn),inactive: 101%
17,Cc1ccc(C(=O)c2cn(CC(=O)NCc3ccccc3Cl)c3nc(C)ccc3c2=O)cc1,inactive: 86%
18,COc1cccc(N2CCN(C(=O)c3cc4c(=O)oc5ccc(C)cc5c4s3)CC2)c1,inactive: 89%
19,CCCCn1nc(NC(=O)c2cccc(Cl)c2)c2cc3cccc(C)c3nc21,inactive: 83%
20,CCCn1c2ccccc2c2cnn(CC(=O)N3CCCC(C)C3)c(=O)c21 (stereo not drawn),inactive: 60%

row,Compound,survival
1,COc1cc(NC(=O)N2CCC(CN3CCOCC3)CC2)cc(OC)c1OC,inactive: 91%
2,Nc1ccc2c(c1)OC1(CCCCC1)O2,active: 55%
3,CC(C)c1ccc(Nc2ncnc3onc(-c4ccc(F)cc4)c23)cc1,inactive: 80%
4,Cc1cc(Cl)ccc1NC(=O)Cn1nnc2sc(-c3ccccc3)cc2c1=O,inactive: 106%
5,O=C(NCC1CCCO1)Nc1c[nH]c2c(Cl)cccc2c1=O (stereo not drawn),inactive: 97%
6,COc1ccc(OC)c2sc(N3CCN(C(=O)CCS(=O)(=O)c4ccc(F)cc4)CC3)nc12,inactive: 94%
7,Cc1nc2nc(SCC(=O)NC3CCCCC3)nn2c(C)c1Cc1ccccc1Cl,active: 25%
8,CCCCn1c(SCC(=O)N2CCCC2)nc2ccccc2c1=O,inactive: 99%
9,COC(=O)c1ccc2c(c1)N(Cc1ccc(Cl)cc1)C(=O)c1ccccc1S2,inactive: 78%
10,COCCCNC(=O)CCc1c(C)nc2nc(-c3cc(OC)cc(OC)c3)nn2c1C,inactive: 83%
11,CC(C)N(Cc1ccccc1)S(=O)(=O)c1ccc(-c2cc(C(F)(F)F)on2)s1,inactive: 96%
12,CCCC(c1nnnn1CS(=O)(=O)c1ccc(C)cc1)N1CCC(C(N)=O)CC1 (stereo not drawn),inactive: 89%
13,COc1ccc2[nH]c(=O)c(CN(Cc3ccco3)C(=S)NCc3ccco3)cc2c1,active: 65%
14,CC(C)OCCCNC(=O)CN1C(=O)COc2ccc(S(=O)(=O)N3CCCCCC3)cc21,inactive: 90%
15,CCc1ccccc1-n1c(C)nc2cc(C(=O)NCCc3ccc(Cl)cc3)ccc21,inactive: 91%
16,CC(C)c1ccc(N(CC(N)=O)S(C)(=O)=O)cc1,inactive: 85%
17,Cc1ccc(CNC(=O)C2CCN(S(=O)(=O)c3cn(C)cn3)CC2)cc1,inactive: 115%
18,O=C(NCCCc1nc2ccccc2n1Cc1ccc(Cl)cc1)C1CCCCC1,inactive: 64%
19,Cc1ccc(-n2ncc(C(=O)NCCN3CCCC3)c2C2CCN(C(=O)OC(C)(C)C)CC2)cc1C,inactive: 94%
20,Cn1nnc2c(N3CCN(c4cccc(Cl)c4)CC3)ncnc21,inactive: 71%

row,Compound,survival
1,COCCN(Cc1cccs1)S(=O)(=O)c1cc(-c2cc(C)no2)ccc1C,inactive: 119%
2,COCCCNC(=O)c1c(NC(=O)Cc2coc3c(C)c(C)ccc23)sc2c1CCCC2,inactive: 62%
3,COc1cccc(CNC(=O)CCS(=O)(=O)c2ccc3c(c2)oc(=O)n3C)c1,inactive: 72%
4,CCC(Sc1nnc2c(n1)[nH]c1ccccc12)C(=O)Nc1nnc(C(C)C)s1 (stereo not drawn),inactive: 67%
5,COC(=O)C1C(C(C)C)N(c2ccccc2)OC1(C)O (stereo not drawn),inactive: 82%
6,CCCCOC(=O)c1c(N)n(-c2ccc(OC)cc2OC)c2nc3ccccc3nc12,inactive: 89%
7,CCCc1cc(NCCc2ccc(OC)cc2)n2ncnc2n1,inactive: 89%
8,CCCCN(CC)CCCNC(=O)CS(=O)(=O)Cc1nc(-c2ccc(C)cc2)oc1C,inactive: 96%
9,CCOc1ccc(CCNC(=O)C2CCN(C(=O)N3CC(CC)Oc4ccccc43)CC2)cc1 (stereo not drawn),inactive: 70%
10,CCCOc1ccc(C(=O)Nc2ccc3oc(-c4ccncc4)nc3c2)cc1,inactive: 62%
11,O=C(Nc1nnc(N2CCCCCC2)s1)Nc1cc(F)ccc1F,inactive: 103%
12,CCOCCCN(Cc1ccco1)S(=O)(=O)c1cc2c(cc1Cl)NC(=O)CO2,inactive: 72%
13,Cc1c2cnn(CC(=O)NCc3ccc(F)cc3)c(=O)c2c(C)n1Cc1cccc(Cl)c1,inactive: 70%
14,O=C(NCc1ccc(Cl)cc1)c1cnc2sc(N3CCOCC3)nn2c1=O,active: 52%
15,Cc1ccccc1-c1noc(-c2ccc(N3CCCCC3)c([N+](=O)[O-])c2)n1,inactive: 103%
16,COc1cc(NC(=O)CSc2nnc(C)n3c2cc2oc(C)cc23)cc(OC)c1,inactive: 63%
17,CCc1ccc(OCC(=O)NC(Cc2c[nH]c3ccccc23)C(=O)O)cc1 (stereo not drawn),active: 40%
18,CC(C)C(=O)Nc1ccc2nc(SCC(=O)N3CCCC3)sc2c1,inactive: 84%
